Reference: PubChem BioAssay AID624418 (National Center for Advancing Translational Sciences (NCATS), 2012)
The whole screen tested about 410,000 compounds, of which about 530 (0.13%) were called active. Inconclusive means that the source gave no clear call. Such entries were picked first, then a sample of the others. The call rests on the fitted dose curve; in most records, active means well fitted inhibition curve with a large enough effect; inconclusive means small, poorly fitted or top-dose-only effect, or another doubt; inactive means no such curve, though single readings can be large or run the other way. A potency beside an inconclusive call is a rough fit, not a confirmed value.

assay: qHTS of GLP-1 Receptor Inverse Agonists: Cytotox Screen; settings: HEK293 cAMP-luciferase reporter cells, luminescence, 24 h; activity change, negative = inhibition: at 38.3 µM (top of the series) unless noted
Method in brief: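 Luminescence readout: signal drop marks cytotoxicity. Plated cells grew 12 h at 37 °C, 5% CO2, received 23 nL compound for 24 h, then got luciferase reagent, read after 12 min at RT.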
On the % scale 0 is the no-effect control and ±100 the full control effect; potency means the concentration at half of the fitted maximal effect.

Question: Which “activity change, negative = inhibition” value does the source give for `O=C(Nc1cc(-c2ccc(Cl)cc2)no1)c1ccc(F)cc1` here?
Answer: inactive: -2.07%

Question: Which Potency does the source give for `COc1cc(C(=O)Nc2nc(-c3ccc(F)cc3)cs2)ccc1OCC(=O)N1CCOCC1` here?
Answer: inconclusive: 11.2 µM [inhibitor, partial curve, poor fit]

Question: For `CC1CCN(CC(O)Cn2c3ccccc3c3ccccc32)CC1` (stereo unspecified), which Potency is on record?
Answer: inconclusive: 22.4 µM [inhibitor, single point]

Question: For `Cc1nnc(SCC(=O)N/N=C/c2cn(-c3ccccc3)nc2-c2ccccc2)n1-c1ccccc1`, which Potency is on record?
Answer: inconclusive: 7.94 µM [inhibitor, partial curve, poor fit]

Question: Which “activity change, negative = inhibition” value does the source give for `COc1nnc(-c2ccc(N3CCCCC3)c(NC(=O)c3ccccc3Cl)c2)c2ccccc12` here?
Answer: inactive: -10.9%

Question: For `O=[N+]([O-])c1cccc(/C=C/C=N/Nc2nc(N3CCCCC3)nc(N3CCCCC3)n2)c1`, which “activity change, negative = inhibition” value is on record?
Answer: inactive: 9.03%

Question: For `O=C(NNC(=O)c1ccc(Cl)cc1Cl)Nc1ccccc1`, which “activity change, negative = inhibition” value is on record?
Answer: inactive: 2.71%

Question: Which Potency does the source give for `Cc1cccc(-n2c(O)c(C=NC3CCS(=O)(=O)C3)c3ccccc3c2=O)c1C` (stereo unspecified) here?
Answer: inconclusive: 1 µM [inhibitor, full curve, poor fit]

Question: Which Potency does the source give for `O=C(Oc1ccc([N+](=O)[O-])cc1)C1CC(=O)N(c2ccc3c(c2)OCCO3)C1` (stereo unspecified) here?
Answer: inconclusive: 10 µM [inhibitor, single point]

Question: Which “activity change, negative = inhibition” value does the source give for `CCOc1ccccc1C(=O)NCC(c1cccs1)S(=O)(=O)c1ccc(F)c(C)c1` (stereo unspecified) here?
Answer: inactive: 1.7%

Question: For `COc1ccc(C2C(C(=O)c3cccs3)=C(O)C(=O)N2c2nnc(C)s2)cc1OC` (stereo unspecified), which Potency is on record?
Answer: inconclusive: 28.2 µM [inhibitor, single point]

Question: With `O=c1ccc(N=Nc2ccccc2)ccc1O` as the molecule, how does the Potency read?
Answer: active: 11.2 µM

Question: Which Potency does the source give for `Cc1c(C)n(Cc2ccc(F)cc2)c2ccc(C(=O)Nc3ccc(Cl)cc3)cc12` here?
Answer: inconclusive: 11.2 µM [inhibitor, partial curve, poor fit]

Question: For `O=S1(=O)C=C(SCCN2CCCCC2)c2ccccc21`, which Potency is on record?
Answer: inconclusive: 10 µM [inhibitor, partial curve]

Question: Which Potency does the source give for `O=[N+]([O-])c1ccccc1S(=O)(=O)c1ccccc1` here?
Answer: inconclusive: 28.2 µM [inhibitor, single point]

Question: With `COc1ccccc1-n1cc(C(=O)NCC(=O)N2CCN(Cc3ccccc3)CC2)c2ccccc2c1=O` as the molecule, how does the Potency read?
Answer: inconclusive: 7.94 µM [inhibitor, partial curve, poor fit]

Question: Which Potency does the source give for `O=c1[nH]sc2ccccc12` here?
Answer: inconclusive: 12.6 µM [inhibitor, single point]

Question: With `Cc1[nH]n(-c2ccccc2)c(=O)c1/C=N/N1C(=O)c2ccc3c4c(ccc(c24)C1=O)CC3` as the molecule, how does the Potency read?
Answer: inconclusive: 28.2 µM [inhibitor, single point]

Question: For `COc1cc(/C=C2\SC(=S)N(NC(=O)c3ccc(O)c(OC)c3)C2=O)ccc1O`, which Potency is on record?
Answer: inconclusive: 11.2 µM [inhibitor, partial curve, poor fit]

Question: With `COc1ccc(-c2cc(N)n(S(=O)(=O)c3c(F)c(F)c(F)c(F)c3F)n2)cc1OC` as the molecule, how does the Potency read?
Answer: inconclusive: 28.2 µM [inhibitor, single point]

Question: For `CN1CCN(C(=O)c2cc3nc(-c4ccc(F)cc4)cc(C(F)(F)F)n3n2)CC1`, which “activity change, negative = inhibition” value is on record?
Answer: inactive: -7.66%

Question: For `CCc1nc2ccc(C(=O)NC3CCN(Cc4ccccc4)CC3)cn2c1N(C)Cc1ccc(N(C)C)cc1`, which Potency is on record?
Answer: inconclusive: 12.6 µM [inhibitor, single point]

Question: With `COCCOC(=O)c1c(C)oc2ccc(OC(=O)c3c(OC)cccc3OC)cc12` as the molecule, how does the Potency read?
Answer: inconclusive: 12.6 µM [inhibitor, single point]

Question: Which Potency does the source give for `CCc1cc(C(=O)Nc2nc(-c3ccccn3)cs2)sc1C` here?
Answer: inconclusive: 28.2 µM [inhibitor, single point]

Question: For `CCN(CC)S(=O)(=O)c1ccc(Cl)c(C(=O)NC2CCN(Cc3ccccc3)CC2)c1`, which “activity change, negative = inhibition” value is on record?
Answer: inactive: -9.61%

Question: Which “activity change, negative = inhibition” value does the source give for `COc1ccc(O)c(/C=C2/SC(=S)N(Cc3ccccc3)C2=O)c1` here?
Answer: inactive: 2.57%

Question: With `Cc1ccc2nc(-c3ccc(O)c(O)c3)cn2c1` as the molecule, how does the Potency read?
Answer: inconclusive: 8.91 µM [inhibitor, partial curve, poor fit]

Question: Which “activity change, negative = inhibition” value does the source give for `CCn1c(SCC(=O)NC2CC2)nnc1-c1csc(C)c1` here?
Answer: inactive: 17.3%

Question: For `O=S(=O)(CC(CN1CCCCC1)N1CCCCC1)c1ccccc1` (stereo unspecified), which Potency is on record?
Answer: inconclusive: 10 µM [inhibitor, single point]

Question: With `O=C1c2ccccc2C(=O)N1Cc1cnc(N2CCN(c3ccccc3)CC2)s1` as the molecule, how does the “activity change, negative = inhibition” value read?
Answer: inactive: -1.86%

Question: Which “activity change, negative = inhibition” value does the source give for `Cc1cc(C)cc(Cn2c3ccc(NC(=S)NCc4ccccc4F)cc3c(=O)n2C)c1` here?
Answer: inactive: -14.2%

Question: For `O=C(NC(=S)Nc1ccccc1[N+](=O)[O-])c1ccco1`, which Potency is on record?
Answer: inconclusive: 28.2 µM [inhibitor, single point]

Question: With `CCOC(=O)C1=C(O)/C(=C/c2cc(C)n(-c3ccccc3)c2C)N=C1C` as the molecule, how does the Potency read?
Answer: inconclusive: 28.2 µM [inhibitor, single point]

Question: For `CC(C)n1cc(CN2CCC(C(=O)Nc3cccc(-c4cccc(Cl)c4)c3)CC2)cn1`, which Potency is on record?
Answer: inconclusive: 28.2 µM [inhibitor, single point]

Question: For `CCc1nc2ccc(C(=O)NCCCn3ccnc3)cn2c1N(C)Cc1nccs1`, which “activity change, negative = inhibition” value is on record?
Answer: inactive: -2.64%

Question: With `CCc1nnc(NC(=O)CN2CCN(Cc3cccc(OC)c3)CC2)s1` as the molecule, how does the Potency read?
Answer: inconclusive: 22.4 µM [inhibitor, single point]

Question: Which Potency does the source give for `CC1Nc2ncnc(N3CCOCC3)c2N(Cc2ccccc2)C1=O` (stereo unspecified) here?
Answer: inconclusive: 6.31 µM [inhibitor, partial curve, poor fit]

Question: Which Potency does the source give for `Cc1cccc(OCC(=O)Nc2ccc(Cl)c(-c3nc4ccccc4[nH]3)c2)c1` here?
Answer: inconclusive: 17.8 µM [inhibitor, single point]

Question: For `CC(CNCC1CCCO1)COc1cccc2ccccc12` (stereo unspecified), which Potency is on record?
Answer: inconclusive: 2.51 µM [inhibitor, partial curve, poor fit]

Question: For `CCn1c(=N)n(CC(=O)c2cccc(OC)c2)c2ccccc21`, which Potency is on record?
Answer: inconclusive: 14.1 µM [inhibitor, single point]

Question: For `COc1ccc2ncc(S(=O)(=O)c3ccccc3)c(N3CCC4(CC3)OCCO4)c2c1`, which Potency is on record?
Answer: inconclusive: 2.24 µM [inhibitor, full curve]

Question: With `Cc1[nH]oc(=O)c1N=Nc1ccc2[nH]c(=O)[nH]c2c1` as the molecule, how does the Potency read?
Answer: inconclusive: 28.2 µM [inhibitor, single point]

Question: Which Potency does the source give for `Cc1cc(/C=C2\Sc3ccccc3N2C)cc(C)[n+]1CC1CCCO1` (stereo unspecified) here?
Answer: inconclusive: 11.2 µM [inhibitor, partial curve, poor fit]

Question: Which Potency does the source give for `CCCC(=NCCc1c(C)[nH]c2ccccc12)C1=C(O)CC(c2ccccc2)CC1=O` (stereo unspecified) here?
Answer: inconclusive: 2 µM [inhibitor, full curve, poor fit]

Question: For `Cc1ccc2c(c1)C(=O)C(=O)N2Cc1ccc(OC(C)C)cc1`, which Potency is on record?
Answer: inconclusive: 5.01 µM [inhibitor, partial curve]

Question: For `CC1CCCCN1c1nc(-c2ccncc2)nc2ccccc12` (stereo unspecified), which “activity change, negative = inhibition” value is on record?
Answer: inactive: 18.6%

Question: Which “activity change, negative = inhibition” value does the source give for `Cc1ccc2[nH]c3c(=O)n(CCN4CCNCC4)cnc3c2c1` here?
Answer: inactive: 1.12%

Question: Which Potency does the source give for `COc1ccc(/C=C2\SC(=S)N(CCC(=O)NCCCN3CCOCC3)C2=O)cc1` here?
Answer: inconclusive: 8.91 µM [inhibitor, partial curve, poor fit]

Question: Which Potency does the source give for `CCOc1ccc(S(=O)(=O)NCCC(=O)NC2CCC(C)CC2)cc1` (stereo unspecified) here?
Answer: inconclusive: 20 µM [inhibitor, single point]

Question: With `CCOc1ccc(-c2cn3c(n2)sc2cc(C(=O)NCCCN(CC)CC)ccc23)cc1` as the molecule, how does the Potency read?
Answer: inconclusive: 10 µM [inhibitor, single point]

Question: For `COc1ccc(CNC(=O)c2cc3c(=O)n4cccc(C)c4nc3s2)cc1`, which “activity change, negative = inhibition” value is on record?
Answer: inactive: -4.63%

Question: With `Cc1cc(N2CCN(C)CC2)nc2ccc(NC(=O)c3ccc4c(c3)OCO4)cc12` as the molecule, how does the Potency read?
Answer: inconclusive: 12.6 µM [inhibitor, partial curve, poor fit]

Question: Which Potency does the source give for `O=C(Nc1ccc(N2CCCC2)c(Cl)c1)c1ccc([N+](=O)[O-])o1` here?
Answer: inconclusive: 11.2 µM [inhibitor, partial curve, poor fit]

Question: For `O=C(Nc1ccc(F)cc1)C1CCCN(c2ncnc3c2nc2n3CCCCC2)C1` (stereo unspecified), which “activity change, negative = inhibition” value is on record?
Answer: inactive: 0.518%

Question: With `COc1cc(/C=C/c2ccc3cccc(O)c3n2)cc(Br)c1OC` as the molecule, how does the Potency read?
Answer: inconclusive: 5.62 µM [inhibitor, partial curve]

Question: Which Potency does the source give for `CN(NC(=O)c1cccc(Cl)c1)c1nc(-c2ccccc2)nnc1C(F)(F)F` here?
Answer: inconclusive: 7.94 µM [inhibitor, partial curve]

Question: With `COc1ccc(N=Nc2c(N)nn(C)c2N)cc1` as the molecule, how does the Potency read?
Answer: inconclusive: 11.2 µM [inhibitor, single point]

Question: For `CC(=O)N1CCc2c(sc(NC(=O)C3CCCN3S(=O)(=O)c3cccs3)c2C(N)=O)C1` (stereo unspecified), which “activity change, negative = inhibition” value is on record?
Answer: inactive: 22%

Question: Which “activity change, negative = inhibition” value does the source give for `Cc1ccc(S(=O)(=O)c2nc(-c3cccc(C)c3)oc2N2CCCCC2)cc1` here?
Answer: inactive: 0.362%

Question: For `COc1cccc(Nc2sc(C(=O)c3ccc(F)cc3)c(N)c2C(=O)NCc2ccc(C)cc2)c1`, which Potency is on record?
Answer: inconclusive: 4.47 µM [inhibitor, partial curve, poor fit]

Question: For `O=C(C[C@H]1C(=O)N(c2ccc(F)c(F)c2)C[C@@H]1Cc1ccccc1)Nc1ccccc1`, which Potency is on record?
Answer: inconclusive: 31.6 µM [inhibitor, single point]

Question: Which Potency does the source give for `CCOC(=O)c1c(-c2ccc(C)o2)csc1NC(=O)COC(=O)c1ccc(NC(N)=O)cc1` here?
Answer: inconclusive: 28.2 µM [inhibitor, single point]

Question: With `CCOc1ccc(/C=C/C(=O)c2ccccc2)cc1` as the molecule, how does the “activity change, negative = inhibition” value read?
Answer: inactive: 11.6%

Question: With `O=C(Nc1ccccc1Cl)C1CCN(c2nc3ccccc3[nH]2)CC1` as the molecule, how does the “activity change, negative = inhibition” value read?
Answer: inactive: -0.286%

Question: For `CCOc1ccc(C(C(=O)NCC2CCCO2)N(CCc2cccc(C)c2)C(=O)c2snc(C(N)=O)c2N)cc1` (stereo unspecified), which Potency is on record?
Answer: inconclusive: 10 µM [inhibitor, single point]

Question: Which Potency does the source give for `CCCNC(=S)Nc1ccc(Nc2ccccc2)cc1` here?
Answer: inconclusive: 14.1 µM [inhibitor, single point]
